Data reported in the supplement of paper PMC4967469.

What was measured:
Assay in all cases: Viability of human cancer cell lines after 72 h of drug (GDSC screen)
PF-562271 = compound: CN(c1ncccc1CNc1nc(Nc2ccc3c(c2)CC(=O)N3)ncc1C(F)(F)F)S(C)(=O)=O [PF-562271]; conditions: top dose 2.56 µM; top dose inferred
Experimental: (§1)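 Human cancer cell lines in 384-well plates, medium with 10% serum, drug for 72 h over a 256-fold dose range (nine 2-fold or five 4-fold steps up to the top dose). Adherent lines were fixed and stained with the nucleic acid dye Syto60, suspension lines read with resazurin; signal relative to control wells, capped at 0 and 100%. One two-parameter sigmoid per drug and line, fitted in a mixed model over all curves with the slope shared within a line.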

Afatinib = compound: CN(C)C/C=C/C(=O)Nc1cc2c(Nc3ccc(F)c(Cl)c3)ncnc2cc1O[C@H]1CCOC1 [Afatinib]
Experimental: as §1

SNX-2112 = compound: CC1(C)CC(=O)c2c(C(F)(F)F)nn(-c3ccc(C(N)=O)c(N[C@H]4CC[C@H](O)CC4)c3)c2C1 [SNX-2112]; conditions: top dose 2.56 µM
Experimental: as §1

XMD13-2 = compound: O=C(NC1CC1)c1cccc(-c2ccc3c(NC(=O)C4CC4)n[nH]c3c2)c1 [XMD13-2]; conditions: top dose 10.24 µM; top dose inferred
Experimental: as §1

Vinblastine = compound: CC[C@]1(O)C[C@@H]2CN(CCc3c([nH]c4ccccc34)[C@@](C(=O)OC)(c3cc4c(cc3OC)N(C)[C@H]3[C@@](O)(C(=O)OC)[C@H](OC(C)=O)[C@]5(CC)C=CCN6CC[C@]43[C@@H]65)C2)C1 [Vinblastine]; conditions: top dose 0.1 µM; top dose inferred
Experimental: as §1

[1] = top dose 0.5 µM, screen: GDSC drug entry 1032
[2] = top dose 10 µM, screen: GDSC drug entry 1377, top dose inferred

Cell Line	AUC (PF-562271)	IC50 (PF-562271)	AUC (Afatinib; [1])	IC50 (Afatinib; [1])	AUC (Afatinib; [2])	IC50 (Afatinib; [2])	AUC (SNX-2112)	IC50 (SNX-2112)	AUC (XMD13-2)	IC50 (XMD13-2)	AUC (Vinblastine)	IC50 (Vinblastine)
LB373-MEL-D (melanoma, adherent)	0.884	> 2.56 µM	0.99	> 0.5 µM	0.987	> 10 µM	0.968	> 2.56 µM	0.99	> 10.2 µM	0.884	> 0.1 µM
LB771-HNC (head and neck, adherent)	0.872	> 2.56 µM	0.982	> 0.5 µM	0.931	> 10 µM	0.783	1.37 µM	0.968	> 10.2 µM	0.556	0.00924 µM
LB1047-RCC (kidney, adherent)	0.874	> 2.56 µM	0.876	> 0.5 µM	0.671	2 µM	0.549	0.222 µM	0.966	> 10.2 µM	0.771	0.0433 µM
LB2241-RCC (kidney, adherent)	0.898	> 2.56 µM	0.607	0.0638 µM	0.28	0.137 µM	0.977	> 2.56 µM	0.984	> 10.2 µM	0.562	0.00942 µM
LB2518-MEL (melanoma, adherent)	0.939	> 2.56 µM	0.985	> 0.5 µM	0.986	> 10 µM	0.513	0.174 µM	0.987	> 10.2 µM	0.831	0.068 µM
LC4-1 (lymphoblastic leukaemia, suspension)	0.94	> 2.56 µM	0.985	> 0.5 µM	0.965	> 10 µM	0.55	0.222 µM	0.754	3.79 µM	0.932	> 0.1 µM
LC-1-sq (lung squamous cell carcinoma, adherent)	0.984	> 2.56 µM	0.883	> 0.5 µM	0.918	> 10 µM	0.955	> 2.56 µM	0.923	> 10.2 µM	0.499	0.0062 µM
LCLC-103H (large cell lung carcinoma, adherent)	0.838	1.51 µM	0.988	> 0.5 µM	0.99	> 10 µM	0.806	1.16 µM	0.889	9.77 µM	0.354	0.00258 µM
LK-2 (lung squamous cell carcinoma, adherent)	0.937	> 2.56 µM	0.976	> 0.5 µM	0.975	> 10 µM	0.849	1.75 µM	0.811	5.04 µM	0.472	0.00527 µM
LN-18 (glioma, adherent)	0.897	2.1 µM	0.993	> 0.5 µM	0.989	> 10 µM	0.523	0.182 µM	0.976	> 10.2 µM	0.796	0.0369 µM
LN-405 (glioma, adherent)	0.984	> 2.56 µM	0.984	> 0.5 µM	0.97	> 10 µM	0.813	1.85 µM	0.966	> 10.2 µM	0.774	0.0497 µM
LNZTA3WT4 (glioma, adherent)	0.894	> 2.56 µM	0.989	> 0.5 µM	0.987	> 10 µM	0.772	0.971 µM	0.958	> 10.2 µM	0.685	0.0203 µM
LOU-NH91 (lung squamous cell carcinoma, adherent)	0.971	> 2.56 µM	0.77	0.208 µM	–	–	0.973	> 2.56 µM	0.986	> 10.2 µM	0.528	0.0075 µM
LOUCY (T-cell lymphoblastic leukaemia, suspension)	0.773	0.82 µM	0.992	> 0.5 µM	0.969	> 10 µM	0.18	0.0225 µM	0.866	6.5 µM	0.546	0.00815 µM
LP-1 (myeloma, suspension)	0.987	> 2.56 µM	0.993	> 0.5 µM	0.988	> 10 µM	0.84	1.35 µM	0.908	9.96 µM	0.935	> 0.1 µM
LS-123 (large intestine, adherent)	0.899	> 2.56 µM	0.862	> 0.5 µM	0.898	> 10 µM	0.814	2.02 µM	0.971	> 10.2 µM	0.899	> 0.1 µM
LS-180 (large intestine, adherent)	0.904	> 2.56 µM	0.91	> 0.5 µM	0.894	> 10 µM	0.714	0.71 µM	0.978	> 10.2 µM	0.789	0.0513 µM
LS-513 (large intestine, adherent)	0.964	> 2.56 µM	0.896	> 0.5 µM	0.975	> 10 µM	0.347	0.0591 µM	0.899	> 10.2 µM	0.78	0.0429 µM
LS-1034 (large intestine, adherent)	0.962	> 2.56 µM	0.948	> 0.5 µM	0.978	> 10 µM	0.497	0.157 µM	0.891	> 10.2 µM	0.952	> 0.1 µM
LU-134-A (small cell lung carcinoma, suspension)	0.939	> 2.56 µM	0.987	> 0.5 µM	0.985	> 10 µM	0.3	0.0421 µM	0.941	> 10.2 µM	0.804	0.0538 µM
LU-135 (small cell lung carcinoma, suspension)	0.862	1.61 µM	0.989	> 0.5 µM	0.992	> 10 µM	0.456	0.124 µM	0.836	5.21 µM	0.462	0.00502 µM
LU-139 (small cell lung carcinoma, suspension)	0.972	> 2.56 µM	0.714	0.151 µM	0.943	> 10 µM	0.805	1.75 µM	0.785	5.75 µM	0.558	0.00944 µM

IC50 is the fitted dose that halves viability relative to control wells, and lower means more sensitive; a limit (>, <) means that the fit lies beyond the doses tested. AUC sums up the same curve from the lowest dose to the 256-fold higher top dose; it is 1 without any effect and falls as sensitivity rises. For some of these results: Where the top dose is marked as inferred, it is not printed in the source and was worked back from the curve model. For some of these results: Drugs with an entry number were screened twice under separate entries, and the two screens often disagree.
